Experimental data: article PMC2683827, “GSK-3β phosphorylation of functionally distinct tau isoforms has differential, but mild effects” (Molecular Neurodegeneration, 2009)

B1: tau isoform 1N3R (natural protein)
chain: not shown
notes: also called unphosphorylated 1N3R
B2: GSK-3β phosphorylated tau isoform 1N3R (natural protein)
chain: not shown
modifications: phosphorylated by GSK-3β; an average of approximately 1 mole phosphate per mole of tau; sites not determined
notes: microtubule associated protein tau, human, isoform 1N3R: with exon 2, without exons 3 and 10; The phosphorylation reaction (with the kinase) was used without further purification; also called phosphorylated 1N3R; 1N3Rp

Biological target: the molecule itself
Test: right angle laser light scattering + thioflavine S fluorescence + transmission electron microscopy of induced polymerization; self-polymerization into filaments induced by arachidonic acid (ARA, 0-150 μM; 75 μM for the phosphorylated isoforms and for TEM); 2 μM tau, 10 mM Hepes pH 7.64, 100 mM NaCl, 0.1 mM EDTA, 5 mM DTT, 3.75% ethanol, 18 hours at 23°C

Protein | binding result
B1 | binds
B2 | binds
